# Measured values as given in PubChem BioAssay AID504845 (National Center for Advancing Translational Sciences (NCATS), 2011).
# About 150 (0.038%) of roughly 390,000 compounds were called active. Inconclusive results, whose numbers are uncertain, are shown with a selection of clear calls. Calls come from the whole dose curve; as a rule, active = well fitted inhibition curve with a large enough effect; inconclusive = small, poorly fitted or top-dose-only effect; inactive = no such curve, though single readings can be large or run the other way. Potencies beside an inconclusive call are fits to weak or partial responses and may not hold up.
# Biological target: Regulator of G-protein signaling 4 (Homo sapiens) (UniProt P49798)
# Test: Inhibitors of Regulator of G Protein Signaling (RGS) 4: qHTS; note: nearly all actives have a fitted effect of over 75% in size
# Conditions: Transcreener GDP fluorescence polarization, RGS4-accelerated GTP hydrolysis; series mostly up to 114 µM; activity change, negative = inhibition: at the top concentration
# Summary of the method: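 MLSMR compounds (23 nl, pin-transferred) preincubated 10 min at room temperature with a 500nM (2x) first reagent, then RGS4 at 900nM (2x) plus Transcreener GDP mix added; fluorescence polarization (620/688 nm) read before and after 90 min at 30 °C.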
# % is set by controls: 0 for no effect and ±100 for the full control effect; potency is the fitted concentration of half-maximal effect; tags give direction and shape of the fitted curve.
# UniProt P49798, sequence (P49798 whole entry, looked up): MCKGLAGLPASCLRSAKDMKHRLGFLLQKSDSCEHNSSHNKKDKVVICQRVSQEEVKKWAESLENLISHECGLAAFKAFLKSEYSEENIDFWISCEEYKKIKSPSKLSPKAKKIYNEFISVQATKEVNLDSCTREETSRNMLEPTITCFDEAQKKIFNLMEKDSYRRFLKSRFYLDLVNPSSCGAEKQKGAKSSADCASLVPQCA
SMILES,Potency,"activity change, negative = inhibition"
CC1(C)Cc2ccccc2-c2nnc(-c3ccccn3)n21,"inconclusive: 100 µM [inhibitor, partial curve, poor fit]",
O=C(/C=C/c1ccc(Br)o1)NCc1ccccc1,"inconclusive: 50.1 µM [inhibitor, partial curve, poor fit]",
Cn1c(=O)[nH]c(=O)c2c1nc(SCC(=O)O)n2Cc1ccccc1,"inconclusive: 79.4 µM [inhibitor, partial curve, poor fit]",
O=S(=O)(c1ccc2[nH]c3c(c2c1)CCCC3)N1CCCCC1,"inconclusive: 50.1 µM [inhibitor, partial curve, poor fit]",
CCC(=O)N1CCc2cc(S(=O)(=O)NC(CC(C)C)C(=O)Nc3cc(C)ccc3OC)ccc21 (stereo not drawn),,inactive: -26.5%
CCn1c(COc2ccc(Cl)cc2)nnc1SC1CCc2ccccc2C1=O (stereo not drawn),"inconclusive: 39.8 µM [inhibitor, partial curve, poor fit]",
CCN(CC)CCn1c2ccccc2c2nc3ccc([N+](=O)[O-])cc3cc21,"inconclusive: 79.4 µM [inhibitor, partial curve, poor fit]",
CCOC(=O)c1c(NC(C)=O)sc2c(O)c(Br)cc(Br)c12,"inconclusive: 50.1 µM [inhibitor, partial curve, poor fit]",
Cc1ccc(OCCOCCN2CCCCC2)c([N+](=O)[O-])c1,,inactive: -0.107%
CC/C=C\C/C=C\C/C=C\C/C=C\C/C=C\C/C=C\CCC(=O)O,,inactive: -40% [at 56.9 µM]
COc1ccc(C(c2sc3nc(C)nn3c2O)N2CCc3ccccc3C2)cc1 (stereo not drawn),"inconclusive: 50.1 µM [inhibitor, partial curve, poor fit]",
O=C1NC(=S)S/C1=C\c1cc(Cl)ccc1Cl,"inconclusive: 89.1 µM [inhibitor, single point]",
COc1cccc(NC2=C(NCCO)C(=O)c3ccccc3C2=O)c1,,inactive: 24%
OCCN1CCN(C(=S)c2ccc(Cl)c(Cl)c2)CC1,"inconclusive: 79.4 µM [inhibitor, partial curve, poor fit]",
CC(=NNS(=O)(=O)c1cccc([N+](=O)[O-])c1)c1ccc(-n2ccnc2)cc1,"inconclusive: 79.4 µM [inhibitor, single point]",
CCOC1(C(F)(F)F)NC(=O)N(Cc2ccc(OC)cc2)C1=O (stereo not drawn),"inconclusive: 89.1 µM [inhibitor, single point]",
Nc1ccccc1Nc1cc(-c2ccccc2)nn1-c1ccccc1,"inconclusive: 79.4 µM [inhibitor, partial curve, poor fit]",
Cc1ccc2cc3cc(C(=O)NCCCN4CCCCCC4)oc3nc2c1,"inconclusive: 10 µM [inhibitor, full curve, poor fit]",
